Reference: the supplement of paper PMC3334620
Whole data set: some 33,000 sequences, median “E-score (-0.5 to 0.5)” near -0.043, cut for the highest 2% near 0.37. This is one part of the list.

molecular target: T1, Upc2 (UniProt Q12151); experiment: PBM E-score (8-mer binding enrichment) (E-score (-0.5 to 0.5)); higher = stronger / more preferred TF binding; most listed sequences are background and not binding sites; conditions: protein concentration: 200 nM; construct: GST-full length
T1 sequence: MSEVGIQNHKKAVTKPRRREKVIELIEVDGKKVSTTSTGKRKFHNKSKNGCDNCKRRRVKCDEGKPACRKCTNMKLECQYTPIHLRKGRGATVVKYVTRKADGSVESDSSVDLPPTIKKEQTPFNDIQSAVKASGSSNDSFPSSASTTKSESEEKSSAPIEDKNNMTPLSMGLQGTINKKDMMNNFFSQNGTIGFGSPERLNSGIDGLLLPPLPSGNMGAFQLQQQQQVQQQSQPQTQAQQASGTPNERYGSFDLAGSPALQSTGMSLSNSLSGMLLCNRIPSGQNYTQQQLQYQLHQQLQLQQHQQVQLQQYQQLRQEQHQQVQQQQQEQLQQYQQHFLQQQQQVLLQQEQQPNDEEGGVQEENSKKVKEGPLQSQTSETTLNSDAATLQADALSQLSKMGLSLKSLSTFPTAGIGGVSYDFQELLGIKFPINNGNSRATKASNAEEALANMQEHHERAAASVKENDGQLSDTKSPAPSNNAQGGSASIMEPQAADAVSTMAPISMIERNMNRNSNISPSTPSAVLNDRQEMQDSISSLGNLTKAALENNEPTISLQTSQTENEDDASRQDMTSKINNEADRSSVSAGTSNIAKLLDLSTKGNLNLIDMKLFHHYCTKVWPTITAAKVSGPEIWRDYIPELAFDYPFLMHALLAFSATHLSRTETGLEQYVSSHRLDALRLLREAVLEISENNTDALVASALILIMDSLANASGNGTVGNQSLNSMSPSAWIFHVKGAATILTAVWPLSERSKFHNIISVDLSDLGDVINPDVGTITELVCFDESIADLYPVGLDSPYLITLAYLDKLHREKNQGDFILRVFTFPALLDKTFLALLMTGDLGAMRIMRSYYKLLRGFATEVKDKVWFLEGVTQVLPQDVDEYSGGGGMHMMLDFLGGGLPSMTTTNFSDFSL
Method in brief: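 GST-tagged yeast TFs (full-length or DNA-binding domain) were made by PURExpress in vitro transcription/translation and applied at about 100-200 nM to universal all-10-mer Agilent arrays. The arrays were made double-stranded by primer extension, on fresh or once-stripped slides. Bound protein was detected with fluorescent anti-GST, and scans were normalised with masliner. Each ungapped eight-base word, pooled with its reverse complement, received an E-score (modified Wilcoxon-Mann-Whitney statistic) from the Universal PBM Analysis Suite.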

| Sequence | PBM E-score |
| --- | --- |
| AGACTGTG | -0.152 |
| ATATCCGC | 0.175 |
| AGTTGTTC | 0.127 |
| CAAAAAGG | -0.0817 |
| CTAATGTC | -0.171 |
| TACCCGTA | 0.339 |
| CTCCTACC | -0.241 |
| ATATCGGA | -0.00291 |
| CAGCCTGG | -0.215 |
| ACCCCCCC | -0.312 |
| ACCCCGGC | -0.191 |
| CTCAAGTA | -0.132 |
| AGGCCAGC | -0.0204 |
| GATAACGC | -0.0237 |
| CAGATACA | 0.0349 |
| CGATAACG | 0.164 |
| ACCAAAAT | 0.00073 |
| CATGCATC | -0.119 |
| CGCTGCCA | -0.1 |
| GTCTTTGA | -0.0423 |
| CCACGATC | 0.125 |
| ACGTTTAT | 0.313 |

| Sequence | PBM E-score |
| --- | --- |
| AGCAGACG | -0.171 |
| TAGGTACA | -0.114 |
| CAACATCA | -0.0677 |
| CCTGCGGA | -0.0982 |
| GGGGGTAA | -0.285 |
| AAGTTAGT | -0.0401 |
| ACAGGGTA | 0.0435 |
| GGGGGGGA | -0.32 |
| AAGTAACG | 0.19 |
| GATGAGGA | -0.0777 |
| GGATTGAA | -0.0284 |
| AGGCGTTC | -0.0195 |
| ATTCGAGC | 0.124 |
| GTATGAAA | 0.272 |
| TATAGACA | 0.115 |
| CCCCTGCC | -0.17 |
| AACAGGGT | -0.187 |
| GAATACGA | 0.439 |
| TCACATGA | -0.249 |
| GGGGACAA | -0.0146 |
| CACGAGTA | 0.126 |
| AACTACTG | -0.159 |

| Sequence | PBM E-score |
| --- | --- |
| ATGGATAG | -0.0756 |
| AGTTGCGC | -0.0195 |
| ATAGACAA | 0.0543 |
| ACAACTCA | -0.185 |
| CCAGACGG | -0.313 |
| CGATGCCC | 0.0631 |
| ATTGGAGA | -0.0484 |
| CGGTGCGA | 0.181 |
| AATTGGAA | -0.165 |
| AATCACCG | 0.00219 |
| AATAGGAA | -0.0836 |
| TGCCGAAA | -0.00788 |
| CCGCTATA | 0.0813 |
| AATTCGAT | 0.0574 |
| GTACTCAA | -0.0704 |
| ACGTGGGA | 0.00481 |
| AGGCTATC | 0.11 |
| AGAGGTTA | -0.143 |
| AGTATAAG | 0.261 |
| CGACAGTC | 0.043 |
| CGAGAGTA | 0.152 |
| AGCAGCTG | -0.131 |

| Sequence | PBM E-score |
| --- | --- |
| AAACCGTT | 0.124 |
| GTAGGCGA | -0.0376 |
| GTAGCCAA | -0.0241 |
| CCAGAGAG | -0.321 |
| CGCTGGCC | -0.107 |
| AGGATGGC | -0.162 |
| ACACTCCG | 0.079 |
| CAGAGTGA | -0.0649 |
| AACTCGAT | 0.0481 |
| AAGACCAC | -0.255 |
| CTCATTGA | -0.141 |
| CAGTGTGC | -0.155 |
| ATAAGATA | 0.146 |
| GGGGTTTA | -0.156 |
| ACCCTACT | -0.252 |
| AAGGGGCA | -0.104 |
| ATTATGGA | -0.02 |
| AAATGGGT | -0.0142 |
| CTGATCTC | -0.0129 |
| CAAATCTC | -0.0575 |
| GCACAACC | -0.205 |
| CAGTTGCC | -0.125 |

| Sequence | PBM E-score |
| --- | --- |
| CAAGCTGA | -0.241 |
| CTTCCTTA | 0.0293 |
| CCCTGTGC | -0.0603 |
| GATGTTGA | -0.0812 |
| CCGGGGGA | -0.376 |
| AGACAGGA | -0.105 |
| GAGGCATC | -0.047 |
| ATCGCTGC | -0.164 |
| ATGCAATG | -0.16 |
| GAAACGCC | 0.0519 |
| AGTTTCGG | 0.0223 |
| TGCAGCAA | 0.121 |
| CTGGGATC | -0.194 |
| GCCCGGAA | 0.0482 |
| ACGTCCTG | -0.0564 |
| CAGAATAG | 0.00039 |
| CATTATAC | 0.266 |
| CTCATTCA | -0.196 |
| GCGTTGGA | -0.276 |
| ATGAGCCC | -0.12 |
| CCAGCCTC | -0.128 |
| CTTAAGAA | 0.0691 |
